Measured values taken from PubChem BioAssay AID1345082 (National Center for Advancing Translational Sciences (NCATS), 2018).
Where “and” joins values, the source holds several entries; their conditions need not be identical. Equal values may be shown once. The whole screen tested about 94,000 compounds, of which about 4,000 (4.3%) were called active. The shares of active, inactive and inconclusive entries below differ from those in the screen. The call rests on the fitted dose curve; in most records, active means well fitted inhibition curve with a large enough effect; inconclusive means small, poorly fitted or top-dose-only effect; inactive means no such curve, though single readings can be large or run the other way. Potencies beside an inconclusive call are fits to weak or partial responses and may not hold up.
On the % scale 0 is the no-effect control and ±100 the full control effect; potency means the concentration at half of the fitted maximal effect; tags describe the fitted curve by direction and shape.

Test: Cytotoxic Profiling in NIH 3T3 Cell Line of Diverse Libraries Using Quantitative High-Throughput Screening; further: nearly all actives have a fitted effect of over 55% in size
Details: NIH 3T3 viability, CellTiter-Glo ATP luminescence, 48-72 h; activity change, negative = cytotoxicity: at 96.7 µM (top of the series); series mostly up to 96.7 µM
In short: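 Mouse fibroblast NIH 3T3 cells, 400 per well, received compound via pintool and were incubated for 48 or 72 hr prior to CellTiter-Glo ATP luminescence measurement.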
With `Cc1ccc(-n2c(C3CCN(C(=O)c4ccc(F)c(Cl)c4)CC3)n[nH]c2=O)cc1` the Potency was active: 12.6 µM. For `O=C1c2c(nc(COc3ccc(Cl)cc3)n2Cc2ccccc2)NCCN1CC1CCOCC1`, the Potency was inconclusive: 28.2 µM [inhibitor, partial curve]. With `COc1ccc(-c2cc(N3CCN(C(=O)Cc4cccc(C)c4)CC3)n[nH]2)cc1` the Potency was inconclusive: 31.6 µM [inhibitor, partial curve]. In the case of `CNC(=O)c1cc(C)nc2onc(C3CCN(C(C)=O)CC3)c12`, the “activity change, negative = cytotoxicity” value was inactive: -23.9% [at 138 µM]. In the case of `CCCCn1c(=O)c(C(=O)N2CCN(C(=O)Cc3ccc(F)cc3)CC2)nc2cccnc21`, the “activity change, negative = cytotoxicity” value was inactive: -13.1%. In the case of `COc1ccc2cc(C3CN(C(=O)c4cc(C(C)=O)n[nH]4)CCO3)ccc2c1` (stereo unspecified), the Potency was inconclusive: 79.4 µM [inhibitor, partial curve]. For `C=CCCC(=O)N1CCC(=O)N(CCC#N)C[C@H]2COc3cc(OC)ccc3[C@H]21`, the Potency was inconclusive: 79.4 µM [inhibitor, partial curve, poor fit]. In the case of `COc1ncccc1-c1cc2c(nc1OC)nc(CCc1ccccc1)n2C`, the Potency was inconclusive: 44.7 µM [inhibitor, partial curve]. For `COc1ccc(CNC(=O)C[C@@H]2C[C@H]3O[C@H](CNC4CCNCC4)[C@@H](O)[C@H]3O2)cc1`, the “activity change, negative = cytotoxicity” value was inactive: 1.82% [at 174 µM]. With `O=C(NCCCc1ccccc1)c1ccc2oc(-c3ccncc3)nc2c1` the Potency was inconclusive: 39.8 µM [inhibitor, partial curve, poor fit]. In the case of `COc1cccc(CN2Cc3cc(NC(=O)c4cccs4)ccc3OCC2=O)c1`, the Potency was inconclusive: 50.1 µM [inhibitor, partial curve, poor fit]. With `CCN1CC(C(=O)NCC2(c3ccccc3F)CCCC2)CC1=O` (stereo unspecified) the “activity change, negative = cytotoxicity” value was inactive: -19.2%. For `Cc1ccc(-n2c(C3CCN(C(=O)c4ccc(F)c(F)c4)CC3)n[nH]c2=O)cc1`, the Potency was active: 10 µM. With `COc1ccc(CNC(=O)[C@@H]2Cc3cn(Cc4cccnc4)c4cccc(c34)[C@H](CC(C)C)N2)cc1` the Potency was inconclusive: 31.6 µM [inhibitor, full curve, poor fit]. For `Cc1cccc(C(=O)N2CCCCCCN(C)C(=O)[C@@H]3CCC[C@@H]32)c1`, the Potency was inconclusive: 50.1 µM [inhibitor, partial curve, poor fit]. With `O=C1CO[C@H]2CCN(Cc3ccccc3F)CC[C@@H]2N1CCN1CCCC1` the Potency was inconclusive: 112 µM [inhibitor, single point]. In the case of `O=c1n(-c2ccc(C(F)(F)F)cc2)nc2n1CCN(Cc1ccccc1)C2`, the Potency was inconclusive: 22.4 µM [inhibitor, full curve] and inconclusive: 22.4 µM [inhibitor, full curve, poor fit]. With `O=C(c1ccccc1F)N1CCC(C(=O)N2CCCC(c3nc4ncccc4[nH]3)C2)CC1` (stereo unspecified) the “activity change, negative = cytotoxicity” value was inactive: -20.8%. In the case of `O=C(Nc1ccc2c(c1)OCCO2)N1CCC(Cc2nncn2Cc2ccccc2)CC1`, the “activity change, negative = cytotoxicity” value was inactive: -35.9%. For `Cc1ccc(Nc2ccnc(N3CCC(N[S+](=O)([O-])c4c(C)noc4C)CC3)n2)cc1`, the Potency was inconclusive: 50.1 µM [inhibitor, partial curve, poor fit]. For `CC(C)(Oc1nn(Cc2cccc(Cl)c2)c2ccccc12)C(=O)NCC[S+](C)(=O)[O-]`, the Potency was inconclusive: 50.1 µM [inhibitor, partial curve, poor fit]. For `COc1ccc(CCNC(=O)C2CCCN(c3ccnc4ccnn34)C2)cc1` (stereo unspecified), the “activity change, negative = cytotoxicity” value was inactive: -25.4%. With `COCC(=O)NC1CCN(c2nccc(Nc3ccccc3OC)n2)CC1` the Potency was inconclusive: 35.5 µM [inhibitor, partial curve]. For `COc1ccc(OCC(O)CN2CCC(=O)N(C)Cc3cc(OC)ccc32)cc1` (stereo unspecified), the Potency was inconclusive: 25.1 µM [inhibitor, partial curve, poor fit]. With `CNC(=O)c1cc(C2CC2)nc2c1c(C1CCN(C(=O)c3cccc(Cl)c3)CC1)nn2C` the Potency was inconclusive: 50.1 µM [inhibitor, partial curve, poor fit]. In the case of `COc1ccc(CC(=O)NC2CN(c3ccnc4ccnn34)C2)cc1`, the Potency was inconclusive: 56.2 µM [inhibitor, partial curve, poor fit]. In the case of `CN[C@@H](CC(C)C)C(=O)N[C@@H]1C=C(C(=O)N[C@H]2CCCNC2=O)C[C@@H](O)[C@@H]1O`, the Potency was inconclusive: 126 µM [inhibitor, partial curve, poor fit]. For `Cc1cc(=O)n(CC(=O)Nc2ccc(F)cc2)c(N(C)Cc2ccccc2)n1`, the Potency was inconclusive: 50.1 µM [inhibitor, partial curve, poor fit]. In the case of `COc1ccc(S(=O)(=O)N2CCC(F)(c3nc(-c4ccncc4)no3)CC2)cc1`, the Potency was inconclusive: 35.5 µM [inhibitor, partial curve]. In the case of `COCCn1ncc(N2CCCC(CC(=O)Nc3cc(C)ccc3OC)C2)cc1=O` (stereo unspecified), the “activity change, negative = cytotoxicity” value was inactive: -15.2%. With `CCn1cc(CN2C[C@@H](CO)[C@H](NC(=O)C3CC3)C2)cn1` the “activity change, negative = cytotoxicity” value was inactive: -13.9%. For `COCCOC1CCOC2(CCN(C(=O)c3ccccn3)CC2)C1` (stereo unspecified), the “outcome” value was “inactive”. With `COc1ccc(N2CCN(c3nc(C(=O)NCC4CCCCC4)cs3)CC2)cc1` the “activity change, negative = cytotoxicity” value was inactive: -9.84%. With `CCCCNC(=O)CC(c1ccc(OC)cc1OC)c1c[nH]c2c(CC)cccc12` (stereo unspecified) the Potency was inconclusive: 50.1 µM [inhibitor, partial curve, poor fit]. In the case of `COc1cc(OC)cc(C(=O)NCC2CCCN(Cc3cccc(C)n3)C2)c1` (stereo unspecified), the “activity change, negative = cytotoxicity” value was inactive: -20.4%. For `Fc1ccc(CN2CCOC[C@H]2c2ncc(-c3cccc(Cl)c3)[nH]2)cc1`, the Potency was active: 70.8 µM. For `OC(c1cccc(C(F)(F)F)c1)c1nc(Nc2ccc(F)cc2)n[nH]1` (stereo unspecified), the Potency was inconclusive: 63.1 µM [inhibitor, partial curve, poor fit]. For `CC(NC(=O)c1csc(N2CCN(c3ccccc3F)CC2)n1)c1ccccc1` (stereo unspecified), the Potency was inconclusive: 50.1 µM [inhibitor, partial curve, poor fit]. For `Cc1ccc(C(=O)NCc2nnc3cc(-c4nc(C(C)C)no4)ccn23)cc1`, the “outcome” value was “inactive”. In the case of `COc1ccc(C(=O)N2CCN(C(=O)c3nc4cccnc4n(CCc4ccccc4)c3=O)CC2)cc1`, the “activity change, negative = cytotoxicity” value was inactive: -8.59%. For `O=C(NC1CCCCCC1)c1cc2n(n1)CC(c1ccc(Cl)cc1)OC2` (stereo unspecified), the Potency was inconclusive: 70.8 µM [inhibitor, partial curve, poor fit].
